The values that follow come from ChEMBL document CHEMBL4888484, “Replenishing the malaria drug discovery pipeline: Screening and hit evaluation of the MMV Hit Generation Library 1 (HGL1) against asexual blood stage Plasmodium falciparum ,using a nano luciferase reporter read-out” (2022).

In all, about 150,000 compounds went through this assay and about 540 (0.36%) showed an effect of 50% or more. Some of the results follow.

For the assay, the system named is Plasmodium falciparum. In words: Primary screen in NF54 nanoGlo assay, in single point, at 2uM, 72h; a lower Z score goes with more inhibition. Format: functional, Erythrocyte. Particulars: timepoint 72 hour.
For the compound `COc1ccc(C)cc1NC(=O)N1CCC(n2cnc3cccnc32)CC1`, the “% Inhibition” value is recorded as -16% and the Z score is given as 2.11.
`Cc1nc(Cn2nnnc2-c2ccncc2)no1`: the “% Inhibition” value was -3% and the Z score is 0.23.
On to `C=CCN(CC=C)C(=O)Nc1cccc(F)c1`, for which the “% Inhibition” value is -15% and the Z score is 2.01.
On to `Cc1cc(OC2CCN(C(=O)Cn3cccn3)CC2)nc(C)n1`, for which the “% Inhibition” value was -11% and the Z score was 2.03.
On the same counts, the results for `Cc1cc(C(=O)Nc2nc(-c3ccccc3)c(C)s2)cs1` are -5% and 0.46.
For the compound `Cc1nc(CN)ccc1[C@H](C)NCc1cccnc1OCC(F)F`, the “% Inhibition” value is reported as 6% and the Z score is on record as -0.87.
On the same counts, the results for `N#CC1(C(=O)Nc2ccc(-c3nnc[nH]3)cc2)CCCCC1` are -12% and 1.83.
For `O=C(CC1(O)CCCC1)NC[C@H](O)c1ccc2ccccc2c1`, in that order: -7% and 0.89.
Take `CC(=O)Nc1ccccc1CC(c1c[nH]c2ccccc12)c1c[nH]c2ccccc12`: the “% Inhibition” value was 34% and the Z score is -4.4.
`CC1CN(C(=O)c2cccc3c2OCO3)CC(C)N1` (stereo not drawn): the “% Inhibition” value is -4% and the Z score came to 0.85.
With `COc1ccc(NC2CC(O)C(CO)O2)cc1` (stereo not drawn), the “% Inhibition” value was -4% and the Z score stood at 0.57.
On the same counts, the results for `CC(NC(=O)C1=NNC(=O)CC1)C1CCCO1` (stereo not drawn) are -5% and 0.53.
For the compound `CCn1ncnc1[C@H](C)NC(=O)Nc1c(C)noc1C`, the “% Inhibition” value is recorded as -15% and the Z score came to 2.64.
Turning to `COC(C)c1noc(CNC2CCCCC2C(C)(C)C)n1` (stereo not drawn), the “% Inhibition” value is on record as -15% and the Z score is 1.99.
With `Cn1ccn2ncc(C(=O)NC(Cc3ccncc3)[C@H]3C[C@@H](O)C3)c12` (stereo partly drawn), the “% Inhibition” value is on record as 5% and the Z score is -0.8.
With `CN(C)c1ccccc1NC(=O)CCc1ccccn1`, the “% Inhibition” value was -13% and the Z score is listed as 1.74.
In the case of `CC1(C(=O)N2C[C@@H](Oc3cccnc3)C[C@H]2C(=O)N2CCOCC2)CCCCC1`, the “% Inhibition” value is -14% and the Z score is 1.87.
Turning to `O=C(NCC[C@@H]1C(=O)Nc2ccccc21)c1cc(OCC(F)F)ccn1`, the “% Inhibition” value is given as -10% and the Z score is 1.74.
On to `Cc1ccc(C(=O)N2CCCCCCNC(=O)[C@@H]3CCC[C@@H]32)cn1`, for which the “% Inhibition” value is reported as -3% and the Z score came to 0.33.
Take `C[C@H]1C(=O)NCCCN1C(=O)c1ccn(-c2cc(F)cc(F)c2)n1`: the “% Inhibition” value was -10% and the Z score is recorded as 1.79.
On to `Cc1[nH]ccc1C(=O)N1C[C@@H]2CC[C@H]1CN(C(=O)c1ccccn1)C2`, for which the “% Inhibition” value was -13% and the Z score stood at 2.16.
As for `O=C(N[C@H]1CCOC2(CCCC2)C1)N(Cc1ccoc1)C1CC1`, the “% Inhibition” value is -5% and the Z score is given as 0.78.
As for `CCn1c(CC2CCN(c3ncnc4[nH]ccc34)CC2)nn(C)c1=O`, the “% Inhibition” value is -9% and the Z score stood at 1.03.
Regarding `Cc1cc(NC(=O)Cc2cccs2)ccc1NC(=O)c1cccs1`, the “% Inhibition” value is on record as -10% and the Z score is given as 1.32.
Turning to `CCN(C(=O)Cn1cc(-c2ccccc2)c2ncn(CC)c(=O)c21)c1ccccc1`, the “% Inhibition” value was 78% and the Z score is -9.77.
On to `Cn1cnc2cc(C(=O)N3CCC(C4CCOCC4)CC3)ccc21`, for which the “% Inhibition” value is listed as -4% and the Z score was found to be 0.72.
In the case of `CCn1cc(C(=O)N2CC[S+]([O-])CC(C)C2)c(C(F)(F)F)n1` (stereo not drawn), the “% Inhibition” value is given as -19% and the Z score is 3.65.
Take `COc1cc2cc(NC(C)=N)nc(C)c2cc1OC`: the “% Inhibition” value amounted to 15% and the Z score is -1.95.
On the same counts, the results for `O=C(N[C@H]1CN[C@H](C(=O)NCCNc2ccccc2)C1)c1ccc(F)c(F)c1` are -9% and 1.6.
On the same counts, the results for `Cc1cccc(C(=O)Nc2cc(C)ccc2N2CCCN(Cc3ccccc3)C2=O)c1` are -11% and 1.38.
Consider `O=C(COC(=O)C1CCC1)Nc1cccc(S(=O)(=O)N2CCOCC2)c1`, for which the “% Inhibition” value is given as -16% and the Z score was found to be 3.07.
For the compound `Cc1noc(C2CN(C(=O)c3c[nH]c4ccccc34)C2)n1`, the “% Inhibition” value amounted to 2% and the Z score was -0.38.
Consider `Cc1ccc(S(=O)(=O)N2CCC(C(=O)OCCOc3cccc(C)c3)CC2)cc1`, for which the “% Inhibition” value turned out to be 3% and the Z score was -0.37.
Regarding `O=C(N[C@@H](CCc1ccccc1)C(F)(F)F)c1cc2c(s1)CCOC2`, the “% Inhibition” value is listed as -7% and the Z score was determined as 1.31.
Take `CCNC(=O)N1CCC(Cc2ccc(C(=O)NCc3ccncc3)cc2)CC1`: the “% Inhibition” value is on record as -4% and the Z score came to 0.56.
Take `O=C(C[C@@]1(O)C(=O)N(Cc2cccc(C(F)(F)F)c2)c2ccccc21)c1ccc2c(c1)OCO2`: the “% Inhibition” value was -4% and the Z score is reported as 0.57.
Take `Cc1cc(C)nc(O[C@H]2CC[C@H](NC(=O)C3CCOCC3)CC2)n1`: the “% Inhibition” value is given as -6% and the Z score came out at 0.65.
As to `Cc1ccc(C(=O)N2CCCN(c3nc4ccccc4c4nnc(-c5ccccc5Cl)n34)CC2)cc1`, the “% Inhibition” value came to 10% and the Z score is reported as -0.89.
As for `C[C@](O)(CNC(=O)c1nnc(-c2ccco2)o1)C1CC1`, the “% Inhibition” value is on record as -4% and the Z score stood at 0.42.
For the compound `COCCN(C)c1cc(C(N)=O)nc(N(C)CCOC)n1`, the “% Inhibition” value is recorded as 7% and the Z score is -1.24.
Turning to `CC(C)c1nncn1CCNC(=O)c1ccoc1C(F)(F)F`, the “% Inhibition” value is given as -5% and the Z score was 0.61.
On to `C[C@H](OC(=O)CCc1nc2c([nH]1)c(=O)[nH]c(=O)n2C)c1cnc2ccccc2c1`, for which the “% Inhibition” value was -2% and the Z score is 0.33.
As for `O=C(C1COc2ccccc2O1)N1CCCC1c1ccncc1` (stereo not drawn), the “% Inhibition” value is listed as -3% and the Z score is on record as 0.48.
On the same counts, the results for `O=C(NC[C@H]1CCCCO1)c1cnc2ccccn2c1=O` are -4% and 0.88.
For the compound `COCC1(CNC(=O)CN2CCOCC2)CCC1`, the “% Inhibition” value was -11% and the Z score worked out at 2.09.
On to `CN(C)C[C@@H](CO)NC(=O)c1cc2c(C(F)F)nn(C)c2s1`, for which the “% Inhibition” value is 2% and the Z score is listed as -0.46.
Consider `Cc1cc(O[C@H]2CCN(C)C2=O)ccc1NC(=O)c1cscn1`, for which the “% Inhibition” value was -4% and the Z score was 0.37.
On to `CN(CC1(CO)CC1)C(=O)Nc1cccc2[nH]ccc12`, for which the “% Inhibition” value worked out at 3% and the Z score is recorded as -0.57.
As for `O=C(CC1CCCC1)NCC1CCN(c2cccnc2)CC1`, the “% Inhibition” value is 18% and the Z score was -2.28.
Turning to `Cc1ncc2c(c1-c1noc(-c3cc(-c4ccccc4)on3)n1)CCNC2`, the “% Inhibition” value is recorded as -14% and the Z score amounted to 1.65.
Turning to `CCOC(=O)COCCN1CCC[C@H]1c1ncccn1`, the “% Inhibition” value is -6% and the Z score is 1.08.
With `O=C1CN(CCn2cncn2)CN1CC1CC1`, the “% Inhibition” value was -13% and the Z score is 2.39.
Consider `COc1ccc(CN[C@H]2[C@H](O)[C@@H](n3cncn3)[C@@H]3OC[C@H]2O3)cc1`, for which the “% Inhibition” value came to 33% and the Z score is reported as -3.68.
As for `COc1nn(C)cc1C(=O)NCc1nnc2cc(-c3nc(C)no3)ccn12`, the “% Inhibition” value is -19% and the Z score was 2.49.
For `COCCc1noc(CNC(=O)[C@H]2CCCO2)n1`, in that order: -12% and 1.17.
Take `CN(C[C@H]1CCOC1)C(=O)COCc1nc2cc(F)ccc2[nH]1`: the “% Inhibition” value is -10% and the Z score was 1.88.
On to `CCn1nc(C)c([C@H](C)NS(=O)(=O)N2CCC(OC)CC2)c1C`, for which the “% Inhibition” value is -3% and the Z score was determined as 0.38.
Consider `CC(C)c1csc(CN2CCC(CCC(=O)N(C)Cc3ccccc3)CC2)n1`, for which the “% Inhibition” value is listed as -4% and the Z score was 0.51.
As to `COC(=O)c1nc(NC(=O)C[C@@H]2N=C(O)N(Cc3cccc(F)c3)C2=O)sc1C(C)C`, the “% Inhibition” value came to 5% and the Z score was -0.59.
Take `CCC(Oc1ccc2c(c1)C(c1ccc(F)cc1)N(C(=O)C(C)(C)C)CC2)C(=O)N1CCCC1` (stereo not drawn): the “% Inhibition” value is 6% and the Z score is reported as -0.69.
For the compound `O=C(Nc1ccc2c(c1)OCO2)NC1CCCC(OC(=O)Nc2ccc(F)cc2)C1` (stereo not drawn), the “% Inhibition” value was 0% and the Z score is -0.03.
On the same counts, the results for `COc1ccc(-n2nc(C)c(CCC(=O)Nc3ccc(F)cc3)c2Oc2ccccc2)cc1` are 4% and -0.54.
In the case of `Fc1ccc(CCNC2=NCCCN2)cc1`, the “% Inhibition” value was 5% and the Z score is given as -0.9.
On the same counts, the results for `O=C(NCCC1(CO)CCC1)c1ccc(Cl)c2occc12` are -3% and 0.43.
`Cc1sc2ncnc(Nc3ccc4c(c3)OCO4)c2c1C`: the “% Inhibition” value is on record as -3% and the Z score worked out at 0.37.
Regarding `CCc1cccc2c1N(S(=O)(=O)c1ccc(S(=O)(=O)N3CCCCC3)cc1)CC2`, the “% Inhibition” value is -14% and the Z score came to 1.24.
For the compound `Cc1nn(C)c(C)c1C(=O)C(=O)N(C)C(C1CC1)C1CC1`, the “% Inhibition” value is given as -15% and the Z score is reported as 1.99.
Consider `Cc1ccc(CN(CC(C)C)C[C@H](O)COCc2ccccc2)s1`, for which the “% Inhibition” value is -8% and the Z score turned out to be 1.29.
Consider `Cn1cc(C(C(=O)O[C@@H]2C[C@@H]3CC[C@@]2(C)C3(C)C)c2cn(C)c3ccccc23)c2ccccc21`, for which the “% Inhibition” value came out at 32% and the Z score was -0.29.
For `Cc1cc(CC(=O)NCc2cc(COc3ccccc3)cs2)on1`, the “% Inhibition” value is reported as 2% and the Z score is listed as -0.28.
Consider `Cc1noc(C)c1COC(=O)c1nccnc1N`, for which the “% Inhibition” value is listed as 0% and the Z score is on record as -0.04.
As to `C[C@H](NCc1nnc(C2CC2)o1)c1ccc(-n2ccnn2)cc1`, the “% Inhibition” value is reported as -12% and the Z score was determined as 1.5.
Consider `CC(CC(O)c1ccco1)NC(=O)c1cc(Br)c[nH]1` (stereo not drawn), for which the “% Inhibition” value was -13% and the Z score amounted to 1.71.
Consider `O=C1CCCN1CCC(=O)N1CCO[C@@H](CCCc2ccccc2)C1`, for which the “% Inhibition” value is on record as -12% and the Z score worked out at 1.32.
`Cc1cccc(N2CCN(C(=O)c3nnn(-c4ccc(Cl)cc4)c3C)CC2)c1C`: the “% Inhibition” value was 6% and the Z score is listed as -0.9.
As for `CCCCS(=O)(=O)N1CCC[C@@H]1CCc1noc(-c2ccccn2)n1`, the “% Inhibition” value is on record as -10% and the Z score is 1.56.
For `O=C(NCc1cc(-c2ccncc2)n(C2CCCC2)n1)Nc1cccs1`, in that order: -11% and 1.42.
`CC(CCc1ccccc1)N1CCCC1Cn1cncn1` (stereo not drawn): the “% Inhibition” value is reported as -5% and the Z score turned out to be 0.71.
`CC(=O)N[C@H]1CN(C(=O)CCn2ccccc2=O)C[C@@H]1c1ccc(C)cc1`: the “% Inhibition” value was -3% and the Z score was determined as 0.46.
On to `CN1C(=O)N(c2ccnn2C2CCC2)C(=O)C1(C)C`, for which the “% Inhibition” value is recorded as -13% and the Z score is on record as 1.28.
As for `COc1ccc(CN2CCNC(=O)[C@@H]2CC(=O)NCc2ccon2)cc1OC`, the “% Inhibition” value is -19% and the Z score was 2.44.
With `Cc1ccccc1-c1nc(OC(C)C)nn1-c1ccc(NC(=O)C2CCC2)cc1`, the “% Inhibition” value is on record as -4% and the Z score stood at 0.63.
For the compound `CCOc1ccc(-c2noc(CN3N=NC4C(=O)N(c5ccc(F)c(F)c5)C(=O)C43)n2)cc1OC` (stereo not drawn), the “% Inhibition” value turned out to be 15% and the Z score is listed as -1.68.
For `CN[C@@H](C)C(=O)Nc1nn(Cc2ccccc2)c2cccc(Oc3cccnc3)c12`, in that order: 9% and -1.36.

The term % Inhibition denotes the relative decrease from the control value, in per cent.
